# Measurements published in PMC4336329 (PLoS ONE, 2015).
# About 2,200 (0.71%) of roughly 310,000 compounds showed an effect of 50% or more. The effect is printed as a negative number. The list shows a part of the results.
# Molecular target: human ether-à-go-go-related gene (hERG) potassium channel (human, UniProt Q12809)
# Experiment: primary screen, population patch clamp on CHO cells stably expressing hERG
# Sequence of human ether-à-go-go-related gene (hERG) potassium channel (Q12809 whole entry, looked up): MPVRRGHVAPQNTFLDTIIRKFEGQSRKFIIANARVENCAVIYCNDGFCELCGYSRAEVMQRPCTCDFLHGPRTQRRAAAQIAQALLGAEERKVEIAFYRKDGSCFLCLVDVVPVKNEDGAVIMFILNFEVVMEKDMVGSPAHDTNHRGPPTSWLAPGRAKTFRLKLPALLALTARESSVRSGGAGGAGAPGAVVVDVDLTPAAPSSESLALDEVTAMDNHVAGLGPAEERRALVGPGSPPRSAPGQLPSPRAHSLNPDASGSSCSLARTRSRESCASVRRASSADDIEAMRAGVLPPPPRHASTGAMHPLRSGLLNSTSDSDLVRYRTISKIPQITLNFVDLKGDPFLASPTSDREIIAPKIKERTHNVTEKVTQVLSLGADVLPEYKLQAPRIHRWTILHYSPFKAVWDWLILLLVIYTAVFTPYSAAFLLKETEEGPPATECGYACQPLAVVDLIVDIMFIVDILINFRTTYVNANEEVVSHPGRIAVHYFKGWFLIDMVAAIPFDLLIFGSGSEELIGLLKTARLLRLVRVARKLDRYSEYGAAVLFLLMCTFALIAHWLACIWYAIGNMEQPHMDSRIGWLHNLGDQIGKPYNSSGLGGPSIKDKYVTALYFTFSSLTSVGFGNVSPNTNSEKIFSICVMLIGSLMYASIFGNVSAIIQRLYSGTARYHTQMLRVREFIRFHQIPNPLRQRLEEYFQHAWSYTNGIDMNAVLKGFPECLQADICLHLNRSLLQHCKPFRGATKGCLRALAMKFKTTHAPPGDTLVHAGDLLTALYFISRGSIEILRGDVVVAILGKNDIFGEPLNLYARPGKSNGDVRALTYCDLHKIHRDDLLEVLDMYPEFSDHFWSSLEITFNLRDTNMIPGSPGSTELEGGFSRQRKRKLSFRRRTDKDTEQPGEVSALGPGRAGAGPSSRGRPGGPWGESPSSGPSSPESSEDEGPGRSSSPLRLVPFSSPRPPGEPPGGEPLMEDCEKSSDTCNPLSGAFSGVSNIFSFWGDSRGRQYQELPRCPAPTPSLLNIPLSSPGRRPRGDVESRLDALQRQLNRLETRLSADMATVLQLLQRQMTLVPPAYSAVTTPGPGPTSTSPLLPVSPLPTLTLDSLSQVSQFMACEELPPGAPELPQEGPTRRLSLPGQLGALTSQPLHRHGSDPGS
row,SMILES,"hERG current change (%, negative = inhibition) at 1uM"
1,O=C(Cn1nc(-c2ccccc2)c2ccccc2c1=O)Nc1cccc(O)c1,13.7%
2,Cc1ccc(C(=O)NCN2CCN(c3ccc(F)cc3)CC2)cc1,6%
3,N=c1c(C(=O)NC2CCCCC2)cc2c(=O)n3ccccc3nc2n1Cc1ccc(F)cc1,-29.5%
4,CCN(CC)S(=O)(=O)c1cccc(N=Nc2c(O)c3ccccc3oc2=O)c1,6.47%
5,COc1ccc(Cl)cc1NC(=O)CN(C)C(=O)CNC(=O)C12CC3CC(CC(C3)C1)C2,9.5%
6,Cn1c(-c2sccc2OCc2ccc(Cl)cc2Cl)n[nH]c1=S,12.4%
7,O=C(CN1C(=O)NC2(CCCCC2)C1=O)Nc1nc2c(F)cc(F)cc2s1,17.1%
8,COc1ccc(C(=O)NC(=S)Nc2cc3oc4ccccc4c3cc2OC)cc1,2.97%
9,CN(C)C(=O)Oc1cc(OC(=O)N(C)C)cc(C(O)CNC(C)(C)C)c1 (stereo not drawn),11.7%
10,O=C(c1cccc(-n2cnnn2)c1)N1CC=C(c2ccccc2)CC1,-3.52%
11,O=S(=O)(c1ccc(F)cc1)N1CCCc2ccccc21,9%
12,OCC1(Cc2ccc(Cl)cc2)CCN(CCCc2ccccc2)CC1,-83.6%
13,CC(C)(C)NC(=O)C(=O)NNC(=O)c1cccc(Br)c1,1.02%
14,Clc1ccc2nc(CSc3nnc4ccccn34)cn2c1,3.94%
15,Cc1nnc(N/N=C/C(C)c2ccccc2)[nH]c1=O (stereo not drawn),8.55%
16,CCn1c(COc2ccc3c(c2)CCCC3)nnc1SCC(=O)Nc1nccs1,0.166%
17,CCOC(=O)C1(C)Oc2ccc(S(=O)(=O)CC)cc2NC1=O (stereo not drawn),16.3%
18,O=C(NCc1cccc(Cl)c1)C1CCCN(c2ncnc3c2nc2n3CCCCC2)C1 (stereo not drawn),-25.2%
19,CCCCOc1ccc(Cl)cc1CSc1nnc(CC)n1N,7.59%
20,Cc1cc(=O)oc(C)c1C(=O)NC12CC3CC(CC(C3)C1)C2,3.12%
21,O=S(=O)(c1cccs1)N1CN(Cc2cccs2)c2nc3ccccc3nc21,4.53%
22,CC(=O)Nc1ccc(C(O)(C(F)(F)F)C(F)(F)F)cc1,8.79%
23,O=c1c2ccccc2c(C=NC2CCN(Cc3ccccc3)CC2)c(O)n1Cc1ccc2c(c1)OCO2,12.5%
24,COc1ccc(C(=O)N2CCN(C(=O)c3ccco3)CC2)cc1OC,1.92%
